“And” between values parts separate entries of the source, which are not always exact repeats. Equal entries are not always repeated. Structures can show the parent of a compound that is named as a salt. Hit rate of the full screen: of about 1,800 compounds, about 50 (3%) showed activity. Some of the results follow.

Experimental findings from the supplement of paper PMC11060735 are described below.
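Also: fibroblasts sorted 14 days after bleomycin, GFP+ and GFP− mixed 1:1 in 384-well plates (GFP− as in-well control), imaged after Hoechst and NucView530 staining, reference wells lacked compound.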

In this test the test system is mouse p16Ink4a+/- lung fibroblasts (INKBRITE, bleomycin-injured). As to the kind of experiment: percentage of GFP+ (p16Ink4a+) fibroblasts among all cells in well; higher = less depletion of p16Ink4a+ cells, active = 20 or less. Conditions: 1 µM; 3 days.
As to `CN(CCOc1ccc(NS(C)(=O)=O)cc1)CCc1ccc(NS(C)(=O)=O)cc1` [Dofetilide], the “percentage of GFP+” value is inactive: 40.4%.

Consider `COc1ccc2cc3[n+](cc2c1OC)CCc1cc2c(cc1-3)OCO2` [Berberine], for which the “percentage of GFP+” value was inactive: 38.5%.

Consider `Cc1ccc(Nc2nccc(N(C)c3ccc4c(C)n(C)nc4c3)n2)cc1S(N)(=O)=O` [Pazopanib], for which the “percentage of GFP+” value was inactive: 27.5% and inactive: 28.8%.

For `O=C1CN2Cc3c(ccc(Cl)c3Cl)N=C2N1` [Anagrelide], the “percentage of GFP+” value is inactive: 46.1%.

As to `CC1(C)CCC(CN2CCN(c3ccc(C(=O)NS(=O)(=O)c4ccc(NCC5CCOCC5)c([N+](=O)[O-])c4)c(Oc4cnc5[nH]ccc5c4)c3)CC2)=C(c2ccc(Cl)cc2)C1` [Venetoclax], the “percentage of GFP+” value was inactive: 54.5%.

As for `CCCCCCCCCCC[C@@H](C[C@@H]1OC(=O)[C@H]1CCCCCC)OC(=O)[C@H](CC(C)C)NC=O` [Orlistat], the “percentage of GFP+” value was inactive: 46.3%.

Turning to `CC(=O)O[C@]1(C(C)=O)CC[C@H]2[C@@H]3C=C(C)C4=CC(=O)CC[C@]4(C)[C@H]3CC[C@@]21C` [Megestrol Acetate], the “percentage of GFP+” value is inactive: 39.5%.

Regarding `C=C1CC[C@@H]2[C@](C)(CO)[C@H](O)CC[C@@]2(C)[C@@H]1C/C=C1/C(=O)OCC1O` (stereo not given in full) [Andrographolide], the “percentage of GFP+” value is inactive: 33.7%.

Turning to `CCn1c2ccccc2c2cc(Nc3ccnc(NCCCN4CCOCC4)n3)ccc21`, the “percentage of GFP+” value is inactive: 52.4%.

Consider `CC(C)n1nc(-c2ccc3oc(N)nc3c2)c2c(N)ncnc21`, for which the “percentage of GFP+” value was inactive: 43.3%.

For `COc1cc2c(N3CCN(C(=O)Nc4ccc(OC(C)C)cc4)CC3)ncnc2cc1OCCCN1CCCCC1`, the “percentage of GFP+” value is inactive: 44.4%.

As to `O=C(CS(=O)Cc1ccco1)NC/C=C\COc1cc(CN2CCCCC2)ccn1` (stereo not given) [Lafutidine], the “percentage of GFP+” value was inactive: 36.9%.

Turning to `CS(=O)(=O)OCCCCOS(C)(=O)=O` [Busulfan], the “percentage of GFP+” value was inactive: 50.1%.

As to `COc1cc2nc(N3CCN(C(=O)C4CCCO4)CC3)nc(N)c2cc1OC` (stereo not given) [Terazosin], the “percentage of GFP+” value is inactive: 47.2%.

Take `COc1cc(OC)c(C(=O)CCCN2CCCC2)c(OC)c1` [Buflomedil, Buflomedil Hydrochloride]: the “percentage of GFP+” value was inactive: 39.9%.

For the molecule `COc1ccc(C2=NC(c3ccc(Cl)cc3)C(c3ccc(Cl)cc3)N2C(=O)N2CCNC(=O)C2)c(OC(C)C)c1` (stereo not given) [Nutlin-3], the “percentage of GFP+” value is inactive: 44.3%.

Consider `O=c1cc(-c2ccccc2)oc2cc(O)c(O)c(O)c12` [Baicalein], for which the “percentage of GFP+” value is inactive: 39.1%.

With `COc1ccc(C2CNC(=O)C2)cc1OC1CCCC1` (stereo not given) [Rolipram], the “percentage of GFP+” value is inactive: 40.3%.

`CC[C@@H]1C(=O)N(C)c2cnc(Nc3ccc(C(=O)NC4CCN(C)CC4)cc3OC)nc2N1C1CCCC1`: the “percentage of GFP+” value is inactive: 27.9%.

In the case of `CC(=O)S[C@@H]1CC2=CC(=O)CC[C@]2(C)[C@H]2CC[C@@]3(C)[C@@H](CC[C@@]34CCC(=O)O4)[C@H]12` [Spironolactone], the “percentage of GFP+” value is inactive: 43.4%.

On to `Cn1ccnc1S` [Methimazole], for which the “percentage of GFP+” value was inactive: 45.9%.

Turning to `COc1ccc2[nH]c(S(=O)Cc3ncc(C)c(OC)c3C)nc2c1` (stereo not given) [Esomeprazole; Omeprazole], the “percentage of GFP+” value is inactive: 43.4% and inactive: 32.8%.

For `CC[C@@]1(O)C(=O)OCc2c1cc1n(c2=O)Cc2cc3c(CN(C)C)c(O)ccc3nc2-1` [Topotecan, Topotecan Hydrochloride], the “percentage of GFP+” value is inactive: 29.3%.

As to `Nc1nc(O)c2ncn([C@@H]3O[C@H](CO)[C@@H](O)[C@H]3O)c2n1` [Guanosine], the “percentage of GFP+” value is inactive: 39.5%.

On to `CNC(=O)c1ccc(-c2cnc3ncc(Cc4ccc5ncccc5c4)n3n2)cc1F`, for which the “percentage of GFP+” value is inactive: 55.8%.

On to `COc1cc(N2CCC(N)CC2)ccc1Nc1ncc(Cl)c(-c2c[nH]c3ccccc23)n1`, for which the “percentage of GFP+” value is inactive: 52.7%.

Turning to `O=C[C@H](O)[C@@H](O)[C@H](O)CO` [Xylose], the “percentage of GFP+” value is inactive: 42.5%.

As for `Cc1ccccc1N1C(=O)c2cc(S(N)(=O)=O)c(Cl)cc2NC1C` (stereo not given) [Metolazone], the “percentage of GFP+” value was inactive: 51.2%.

For `COc1ccccc1OCCNCC(O)COc1cccc2[nH]c3ccccc3c12` (stereo not given) [Carvedilol, Carvedilol Phosphate], the “percentage of GFP+” value is inactive: 40.9%.

Turning to `COc1cc(Cc2cnc(N)nc2N)cc(OC)c1OC` [Trimethoprim], the “percentage of GFP+” value was inactive: 46.9%.

For the molecule `COc1ccc2c(c1)c(CC(=O)N1CCOCC1)c(C)n2C(=O)c1ccc(Cl)cc1`, the “percentage of GFP+” value is inactive: 41.2%.

As for `O=C(CCCCCCNC(=O)c1cnc(N(c2ccccc2)c2ccccc2)nc1)NO` [Rocilinostat], the “percentage of GFP+” value was inactive: 46.4%.

For `COc1nc(C)cnc1NS(=O)(=O)c1cccnc1-c1ccc(-c2nnco2)cc1` [Zibotentan], the “percentage of GFP+” value was inactive: 33.2%.

For the molecule `COc1cc2c(Oc3ccc(NC(=O)C4(C(=O)Nc5ccc(F)cc5)CC4)cc3F)ccnc2cc1OCCCN1CCOCC1` [Foretinib], the “percentage of GFP+” value was inactive: 36%.

On to `CCOc1cc(N)c(Cl)cc1C(=O)NCC1CN(Cc2ccc(F)cc2)CCO1` (stereo not given) [Mosapride, Mosapride Citrate], for which the “percentage of GFP+” value is inactive: 37.1%.

Consider `OC[C@@H](O)CN1CCN(c2ccccc2)CC1` [Levodropropizine], for which the “percentage of GFP+” value was inactive: 43.8%.

Turning to `C[C@H](Cn1cnc2c(N)ncnc21)OCP(=O)(O)O` [Tenofovir], the “percentage of GFP+” value is inactive: 36.4%.

Turning to `Cc1ncc([N+](=O)[O-])n1CC(O)CCl` (stereo not given) [Ornidazole], the “percentage of GFP+” value was inactive: 43.3%.

For the molecule `OCCOCCN1CCN(C2=Nc3ccccc3Sc3ccccc32)CC1` [Quetiapine], the “percentage of GFP+” value was inactive: 44.3%.

Consider `Cc1cc([C@@H](C)Nc2ccccc2C(=O)O)c2nc(N3CCOCC3)cc(=O)n2c1`, for which the “percentage of GFP+” value was inactive: 48.8%.

Consider `COc1ccc2cc(-c3[nH]c(-c4ccc(S(C)=O)cc4)nc3-c3ccncc3)ccc2c1` (stereo not given) [Tie2 kinase inhibitor], for which the “percentage of GFP+” value was inactive: 43.3%.

As to `Cc1cc(C#N)cc(C)c1Oc1nc(Nc2ccc(C#N)cc2)nc(N)c1Br` [Etravirine], the “percentage of GFP+” value was inactive: 35%.

As to `COc1ccc2cccc(CCNC(C)=O)c2c1` [Agomelatine], the “percentage of GFP+” value was inactive: 39.1%.

In the case of `Cn1cc(-c2cnn3c(N)c(Br)c([C@@H]4CCCNC4)nc23)cn1`, the “percentage of GFP+” value was inactive: 33.3%.

On to `O=C(NCCCNc1nc(Nc2cccc(NC(=O)N3CCCC3)c2)ncc1I)c1cccs1`, for which the “percentage of GFP+” value is inactive: 49.3%.
